The campaign covered roughly 150,000 compounds. About 6,500 (4.3%) were called active. Inconclusive results, whose numbers are uncertain, are shown with a selection of clear calls. Calls follow the shape of the dose curve; as a rule, active = well fitted inhibition curve with a large enough effect (not every such curve was filed as active); inconclusive = small, poorly fitted or top-dose-only effect, or another doubt; inactive = no such curve, though single readings can be large or run the other way. Potencies of inconclusive entries are left out as doubtful fits.
Target: 15-hydroxyprostaglandin dehydrogenase [NAD(+)] (Homo sapiens) (UniProt P15428)
Assay: qHTS Assay for Inhibitors of HPGD (15-Hydroxyprostaglandin Dehydrogenase)
Conditions: purified HPGD, NADH fluorescence kinetic, PGE2 substrate; activity change, negative = inhibition: stronger effect = lower value
In short: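 20 nM HPGD preincubated 15 min at room temperature with compound in 50 mM Tris-HCl pH 8, 0.01% Tween 20. Started with 1 mM NAD+ and 30 uM prostaglandin E2; NADH fluorescence (360/450 nm) read 5 times over 30-s intervals, last minus first.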
% is scaled to controls: 0 for no effect and ±100 for the full control effect; potency is read from the fitted curve at half-maximal effect; tags tell the direction and shape of the fitted curve.

Chain of UniProt P15428 (P15428 whole entry, looked up): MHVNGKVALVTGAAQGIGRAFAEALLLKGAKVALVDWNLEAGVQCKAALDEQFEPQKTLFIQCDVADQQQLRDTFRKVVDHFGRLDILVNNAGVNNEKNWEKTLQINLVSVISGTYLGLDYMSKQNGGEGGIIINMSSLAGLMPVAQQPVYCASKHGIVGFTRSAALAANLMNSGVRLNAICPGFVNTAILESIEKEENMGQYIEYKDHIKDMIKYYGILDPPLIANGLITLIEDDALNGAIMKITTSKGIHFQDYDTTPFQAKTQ

Compound	Potency	activity change, negative = inhibition
C=CCc1c(C)nc(C)nc1N/N=C/c1ccc(N(C)C)cc1	inconclusive [inhibitor, partial curve]	
CCCC(=O)Cl		inactive: -1.66%
FC(F)(F)c1ccc2c(c1)N(CCCN1CCN(CCCl)CC1)c1ccccc1S2	inconclusive [inhibitor, single point]	
O=C(O)C(C(=O)O)P(=S)(S)c1ccccc1 (stereo unspecified)		inactive: -0.827%
COc1cc2[nH]c(=O)n(Cc3ccc(C(=O)NC4CCCC4)cc3)c(=O)c2cc1OC	inconclusive [inhibitor, partial curve]	
Cc1ccccc1C(=O)NNC(=S)NC(=O)COc1ccccc1	active: 25.1 µM	
S=c1[nH]nc(-c2ccccc2)n1C1C=CCCC1 (stereo unspecified)	inconclusive [inhibitor, single point]	
CCCCC/C=C\C/C=C\C/C=C\C/C=C\CCCC(=O)NCc1ccoc1		inactive: -26.3%
CCCNC(=O)c1c(N)n(CC2CCCO2)c2nc3ccccc3nc12 (stereo unspecified)	inconclusive [inhibitor, partial curve]	
Fc1ccccc1N1CCN(Cc2c(F)cccc2F)CC1		inactive: -18.7%
CCN(CC)C(=O)c1ccc(N2C(=O)C3CC=C(Cl)CC3C2=O)cc1 (stereo unspecified)	active: 12.6 µM	
COC(=O)c1ccc(C(=O)OC)c(NC(=O)Oc2ccccc2)c1	inconclusive [inhibitor, partial curve]	
Nc1c(C(=O)OCC2CCCO2)c2nc3ccccc3nc2n1Cc1cccs1 (stereo unspecified)	inconclusive [inhibitor, partial curve]	
CNC(=O)Oc1cccc(-c2cn3cc(OC(=O)NC)ccc3n2)c1	inconclusive [inhibitor, partial curve]	
CN1CCN(S(=O)(=O)c2cnc(Cl)c(Br)c2)CC1		inactive: -2.44%
CC(=C1C(=O)c2ccccc2C1=O)N1CCN(CCN=Cc2c(O)n(C)c(=O)n(C)c2=O)CC1		inactive: -26.9%
N#Cc1ccccc1Cn1cc(C(=O)c2cccs2)c2ccccc21	inconclusive [inhibitor, single point]	
c1ccc2nc3ccccc3cc2c1	inconclusive [inhibitor, partial curve]	
NS(=O)(=O)c1ccc(-c2ccc([As](=O)(O)O)cc2)cc1		inactive: -10.8%
O=C(c1ccccc1)c1cn(CC(=O)N2CCCc3ccccc32)c2ccccc12	inconclusive [inhibitor, partial curve]	
CCN(CC)c1ccc(N=Cc2c(O)n(CCc3ccc(OC)c(OC)c3)c(=O)[nH]c2=O)cc1	inconclusive [inhibitor, partial curve]	

— PubChem BioAssay AID894 (National Center for Advancing Translational Sciences (NCATS), 2007)
